# Screen size: about 310,000 compounds; about 14,000 (4.5%) showed an effect of 50% or more. Effects have a minus sign here. The list shows a part of the results.
# Target: human ether-à-go-go-related gene (hERG) potassium channel (human, UniProt Q12809)
# Assay: primary screen, population patch clamp on CHO cells stably expressing hERG
# 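Further: peak tail current of the secondary pulse compared with the same well before compound.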
# human ether-à-go-go-related gene (hERG) potassium channel, sequence (Q12809 whole entry, looked up): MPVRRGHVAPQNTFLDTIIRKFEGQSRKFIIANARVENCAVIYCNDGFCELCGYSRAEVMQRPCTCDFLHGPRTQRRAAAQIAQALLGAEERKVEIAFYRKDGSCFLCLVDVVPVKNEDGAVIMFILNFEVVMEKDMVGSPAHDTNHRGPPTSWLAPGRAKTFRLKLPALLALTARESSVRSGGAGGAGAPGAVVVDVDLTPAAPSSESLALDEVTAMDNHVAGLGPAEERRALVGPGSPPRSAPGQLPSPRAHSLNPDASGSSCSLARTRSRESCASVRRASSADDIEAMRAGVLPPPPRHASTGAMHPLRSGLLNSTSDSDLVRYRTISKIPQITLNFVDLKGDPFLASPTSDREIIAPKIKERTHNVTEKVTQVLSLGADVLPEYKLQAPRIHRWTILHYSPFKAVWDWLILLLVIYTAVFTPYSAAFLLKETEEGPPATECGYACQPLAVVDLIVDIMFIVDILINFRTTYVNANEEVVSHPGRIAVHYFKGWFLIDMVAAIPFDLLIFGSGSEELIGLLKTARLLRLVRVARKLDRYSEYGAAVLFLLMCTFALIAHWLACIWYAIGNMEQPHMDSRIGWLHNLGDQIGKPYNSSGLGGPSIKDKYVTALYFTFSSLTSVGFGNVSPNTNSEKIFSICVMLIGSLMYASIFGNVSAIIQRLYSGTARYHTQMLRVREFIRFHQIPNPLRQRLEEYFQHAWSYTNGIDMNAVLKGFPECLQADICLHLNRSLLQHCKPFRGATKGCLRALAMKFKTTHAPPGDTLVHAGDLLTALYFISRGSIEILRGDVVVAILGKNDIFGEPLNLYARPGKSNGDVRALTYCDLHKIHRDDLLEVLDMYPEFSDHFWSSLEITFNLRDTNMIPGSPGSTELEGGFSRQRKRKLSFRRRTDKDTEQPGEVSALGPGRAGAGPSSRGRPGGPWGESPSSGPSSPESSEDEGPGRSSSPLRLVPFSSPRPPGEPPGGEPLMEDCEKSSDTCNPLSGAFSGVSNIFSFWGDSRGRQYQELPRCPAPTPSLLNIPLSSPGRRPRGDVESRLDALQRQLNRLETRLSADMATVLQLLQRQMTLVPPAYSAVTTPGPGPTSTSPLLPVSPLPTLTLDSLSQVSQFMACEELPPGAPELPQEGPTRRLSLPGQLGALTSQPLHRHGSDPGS
row,SMILES,"hERG current change (%, negative = inhibition) at 10uM"
1,NC(=O)C1CCN(C(=O)c2ccc3c(=O)n(Cc4ccco4)c(SCC(=O)c4ccccc4)nc3c2)CC1,6.75%
2,CC(=O)Nc1ccc(NC(=O)CSC2=NS(=O)(=O)c3cc(F)ccc3N2)cc1,10.7%
3,CCN(Cc1ccccc1)C(=O)COC(=O)CNS(=O)(=O)c1ccc(C)cc1,2.03%
4,CCOC(=O)c1c(C)n(CC)c2c1cc(O)c1ccccc12,10.8%
5,CCCCn1c(SCC(=O)NC2CCCC2)nnc1-c1ccco1,-54.8%
6,COC(=O)Cc1c(C)c2ccc(OCC(=O)N(C)C)cc2oc1=O,-0.937%
7,CCCCOc1ccccc1C1CC(=O)NC2=C1C(=O)CCC2 (stereo not shown),-0.172%
8,CCOC(=O)N1C(=O)[C@](c2ccc(Cl)cc2)(C(C)C)N1C(=O)OCC,1.42%
9,O=C(CN(C(=O)c1ccco1)c1cccc(F)c1)NCc1ccc(F)cc1,-30.6%
10,Cc1ccccc1-n1c(SCC(=O)N/N=C/c2c(C)nn(-c3ccccc3)c2C)nc2ccccc2c1=O,6.39%
11,Cc1cccc(N2C(=O)C(Cl)=C(N3CCOCC3)C2=O)c1,14.2%
12,COc1nc(OC)nc(N2CCC(C(=O)NCc3ccco3)CC2)n1,-18.3%
13,Cc1ccc(OCC(=O)N2CCc3ccccc32)c([N+](=O)[O-])n1,4.59%
14,CCC(=O)N1CCc2cc(Br)cc(S(=O)(=O)N3CCC(C(=O)NC(C)(C)C)CC3)c21,-16.7%
15,CCOC(=O)c1ccc(N2C(=O)C(C)=C(C)C2=O)cc1,1.22%
16,O=C(Nc1ccccc1N1CCOCC1)c1ccc2c(c1)C(=O)N(Cc1ccncc1)C2=O,-58.8%
17,COc1ccc2nc(SCC(=O)Nc3nonc3C)[nH]c2c1,3.59%
18,CCOC(=O)c1[nH]c2ccc(F)cc2c1NC(=O)Nc1ccccc1OC,12.1%
19,CCOc1cc2c(cc1OCC)-n1cccc1C(c1ccccc1O)NC2.Cl (stereo not shown),6.1%
20,CC1(C)CC(=O)C(CC2CCCCC2=O)C(=O)C1 (stereo not shown),15.9%
21,Cc1ccc(SC[C@H](C)CN2CC[C@H](C)CCC2=O)cc1,-23.5%
22,COc1ccc(S(=O)(=O)Nc2c(NC3CCCCC3)c3ccccc3oc2=O)cc1Cl,9.14%

row,SMILES,"hERG current change (%, negative = inhibition) at 10uM"
1,Cc1ccc(NC(=O)CN2CC(C)SC2=NC2CCCCC2)cc1.Cl (stereo not shown),-40.6%
2,CSCC[C@H](NC(=O)Nc1cccc(C(F)(F)F)c1)C(=O)O,-0.0702%
3,Fc1ccccc1N1CCN(Cc2ccc3c(c2)OCO3)CC1,-26.8%
4,CC(C)NC(=O)CC1C(=O)N(Cc2ccccc2)C(C)c2nc3ccccc3n21 (stereo not shown),-4.36%
5,Cc1ccc(-n2nnnc2SCC(=O)NNC(=O)c2ccco2)c(C)c1,-4.35%
6,Cn1nc(-c2ccc(Cl)cc2)c2cc(C(=O)N3CCN(C(=O)c4ccco4)CC3)sc21,-20.7%
7,Cc1cccn2c(=O)c3cc(C(=O)N4COCC4(C)C)n(C)c3nc12,14.8%
8,O=C(Nc1ccccc1)N1CCCC(c2nc(-c3ccc(F)cc3)no2)C1 (stereo not shown),-39.1%
9,COc1ccc(NC(=O)CCCN(C)S(=O)(=O)c2ccc(C)cc2)cc1,-26.8%
10,Brc1ccc(Nc2nc3ccccc3n3nnnc23)cc1,21.9%
11,O=C(NNC(=O)c1ccccc1Cl)c1csc(N2CCOCC2)n1,16%
12,Cc1ccccc1C1=NCC(=S)Nc2ccc(Cl)cc21,0.98%
13,COc1cc(OC)c(C(=O)/C=C/c2ccc(OCc3ccccc3)c(OC)c2)c(OC)c1,21.4%
14,COCCn1cc(C(=O)c2cc(Br)ccc2O)cc(C#N)c1=O,2.45%
15,Br.COc1cccc(C(=O)CN2C3=NCCCN3c3ccccc32)c1,-68.1%
16,CCc1ccc(CNC(=O)c2ccc(OC3CCN(C(=O)COC)CC3)cc2)nc1,-4.04%
17,COCC(C)n1c(SCC(=O)c2cc(C)n(C)c2C)nc2ccccc2c1=O (stereo not shown),-3.25%
18,O=C(O)C1=CC2c3ccccc3C1c1ccccc12,17.4%
19,O=C1/C(=C\c2ccc(O)c(O)c2)N=C2CCCCCN12,2.71%
20,COC(=O)c1ccc(OCC2c3cc(OC)c(OC)cc3CCN2C(=O)c2ccco2)cc1 (stereo not shown),-18%
21,COc1cccc(C2C(C(C)=O)=C(O)C(=O)N2CCNCCO)c1 (stereo not shown),28.5%
22,O=C(c1cc(-c2ccccc2O)on1)N1CCOCC1,5.23%

row,SMILES,"hERG current change (%, negative = inhibition) at 10uM"
1,CN(C)S(=O)(=O)c1cccc(NC(=O)C(c2ccccc2)c2ccccc2)c1,16.8%
2,NC(=NC(=O)c1ccccc1)N1N=CCC1c1ccccc1 (stereo not shown),8.41%
3,Cc1ccc(S(=O)(=O)N(C)c2ccc(C(=O)NCC3CCCO3)cc2)cc1 (stereo not shown),-16.7%
4,CCCCCC(=O)Nc1cc(S(=O)(=O)N2CCOCC2)ccc1N1CCN(C)CC1,-11.3%
5,CCOc1cc(C2CC(=O)NC3=C2C(=O)C(C(=O)OC)C(C)C3)cc(Cl)c1O (stereo not shown),6.41%
6,O=C(CSc1nc2c(c(=O)n1-c1ccc(Cl)cc1)SCC2)Nc1nccs1,5.97%
7,CCOC(=O)COc1coc(CN2CCN(c3ccc(F)cc3)CC2)cc1=O,-19.4%
8,CCOC(=O)c1cc2nc(-c3ccccc3)cc(C)n2n1,5.61%
9,CCC(C(=O)OCC(=O)NC(=O)NC(C)(C)C)c1ccccc1 (stereo not shown),33.4%
10,N#CCc1c(C#N)c(N)nc(N2CCN(Cc3ccc4c(c3)OCO4)CC2)c1C#N,-27.2%
11,O=C(CN(C(=O)C1CSC(=O)C1)c1cccc(F)c1)NC1CCCC1 (stereo not shown),20.5%
12,CCOc1cccc(-c2nc3c(s2)CCc2onc(-c4cccc([N+](=O)[O-])c4)c2-3)c1,11.4%
13,Cc1ccc(-n2c(SCC(=O)O)nc3sc4c(c3c2=O)C(C)CCC4)cc1 (stereo not shown),5.93%
14,CCOC(=O)c1ccc(NC(=O)CSc2nnc(-c3ccncc3)n2C)cc1,-26.8%
15,CCOC(=O)CSc1nc2c(sc(=S)n2Cc2ccco2)c(=O)n1-c1ccc(F)cc1,-9.25%
16,Cc1cc(C)c2c(N)c(C(=O)c3ccccc3Cl)sc2n1,18.5%
17,Nc1nccnc1C(=O)OCC(=O)Nc1ccc2[nH]c(=O)[nH]c2c1,17%
18,C/C(=N/NC(=O)CNC(=O)c1ccco1)c1ccco1,2.11%
19,O=C(CN1CCC(n2nnc3cc(F)ccc32)CC1)NC1CCCCC1,-32.8%
20,CC1CCc2cc(F)ccc2N1S(=O)(=O)c1ccc(F)cc1 (stereo not shown),-16.4%
21,Cc1ccc(Nc2nc(-c3ccc(F)cc3)cs2)nc1,17.1%
22,Cc1ccccc1/[N+]([O-])=C/c1cccs1,13.9%

row,SMILES,"hERG current change (%, negative = inhibition) at 10uM"
1,Cc1ccccc1C(=O)N1CCN(S(=O)(=O)c2cccs2)CC1,5.3%
2,CCOC(=O)c1ccc(NC(=S)NCc2ccccc2)cc1,17.3%
3,C=CCOc1c(OC)cc(Cl)cc1C1NC(=O)NC(C)=C1C(C)=O (stereo not shown),5.86%
4,COc1ccc(CC(=O)Nc2cccc(-c3ccc4nncn4n3)c2)cc1OC,5.97%
5,CC1CCCCN1C(=O)COc1ccc2ccc(=O)oc2c1 (stereo not shown),-0.695%
6,O=C(c1cccs1)N(Cc1cccc(Cl)c1)C1CCS(=O)(=O)C1 (stereo not shown),-52%
7,CC(=O)c1ccc(OCCCC(=O)Nc2cccc(-c3nn[nH]n3)c2)cc1,11.6%
8,O=C(Nc1cc(S(=O)(=O)N2CCOCC2)ccc1O)c1ccc(NS(=O)(=O)c2ccc(Cl)s2)cc1,6.26%
9,COc1ccc(S(=O)(=O)N2CCOCC2)cc1NC(=O)COC(=O)CCOc1ccc(C)cc1,-34%
10,C=CCn1c(=O)c(C(=O)Nc2ccc(C)cn2)c(O)c2ccccc21,15.8%
11,Oc1ccc(C(=S)N2CCN(Cc3ccccc3)CC2)cc1,-5.46%
12,Cc1ccc(N2C(=O)C3C(C2=O)C2C=CC3C23CC3)c([N+](=O)[O-])c1 (stereo not shown),-5.47%
13,COc1ccc(C(C#N)c2cnccn2)cc1OC (stereo not shown),0.00978%
14,COCCNC(=O)CSc1ccccc1C(=O)NC1CCSc2ccccc21 (stereo not shown),-1.44%
15,Cc1ccc(-c2nc(=O)[nH]c3ccc(Br)cc23)cc1,-1.51%
16,Nc1nc(N2CCOCC2)cc(=O)[nH]1,11.1%
17,O=C(NCCCCl)C1CC(=O)N(CCc2ccc(F)cc2)C1 (stereo not shown),8.74%
18,Cc1nn(CC(O)COc2ccc3c(c2)CCC3)c(C)c1C (stereo not shown),-5.21%
19,COCCCNC(=O)c1cn(C)c(=O)c2c1c1ccccc1n2C,5.53%
20,CCCc1ccc(OCc2ccc(C(=O)NCc3cccnc3)o2)c(OC)c1,-48.4%
21,O=C(O)CCN1/C(=C/C=Nc2ccccc2)Oc2ccccc21,-14.2%
22,CCOc1ncccc1C(=O)OCCN1C(=O)c2ccccc2C1=O,-9.65%
